Experimental data as given in PubChem BioAssay AID886 (National Center for Advancing Translational Sciences (NCATS), 2007).
Hit rate of the full screen: of about 73,000 compounds, about 2,500 (3.4%) were called active. The inconclusive results got no clear call from the source; some entries with a clear call stand among them for comparison. Calls come from the whole dose curve; as a rule, active = well fitted inhibition curve with a large enough effect; inconclusive = small, poorly fitted or top-dose-only effect; inactive = no such curve, though single readings can be large or run the other way. Potencies beside an inconclusive call are fits to weak or partial responses and may not hold up.

Target: 3-hydroxyacyl-CoA dehydrogenase type-2 (Homo sapiens) (UniProt Q99714)
Assay: qHTS Assay for Inhibitors of HADH2 (Hydroxyacyl-Coenzyme A Dehydrogenase, Type II); note: nearly all actives have a fitted effect of over 60% in size
Details: recombinant HADH2, NADH fluorescence, beta-hydroxybutyryl-CoA; activity change, negative = inhibition: at 57.1 µM (top of the series)
Source text: Assay Overview: NIH Molecular Libraries Screening Centers Network [MLSCN] NIH Chemical Genomics Center [NCGC] Structural Genomics Consortium [SGC] Grant Number: None HADH2: Hydroxyacyl-Coenzyme A dehydrogenase, type II, was supplied by researchers at the Structural Genomics Consortium, Oxford University lab (PI Udo Oppermann). The mitochondrial enzyme 17-hydroxysteroid dehydrogenase type 10 (HSD17-10) previously classified as type II hydroxyacyl-CoA dehydrogenase (HADH2) catalyzes the NAD+ dependent oxidation of a variety of substrates including acyl-CoAs, androgens and neurosteroids as well as bile acids(Shafqat N, Marschall HU, Filling C, et al. Biochemical Journal. 2003;376(Pt 1):49-60). The role in neurodegeneration by binding to amyloid-peptide led to its identification (Oppermann UC, et al FEBS Letters. 1999;451(3):238-242 and Yan SD, et al. Nature. 1997;389(6652):689-695), and mutations in its gene appear to be causative for 2-methyl-3-hydroxybutyryl-CoA dehydrogenase deficiency (Ofman R, et al. American Journal of Human Genetics. 2003;72(5):1300-1307). The enzyme was produced by E.coli fermentation as His-tagged recombinant for the purpose of X-ray structure determination, and had been mass-spectrometry characterized. Inhibition of HADH2 activity was screened by utilizing beta-hydroxybutyryl coenzyme A as an electron donor and NAD+ as an electron acceptor/cofactor. An increase in the fluorescence intensity due to conversion of NAD+ to NADH was used to measure the enzyme activity.
Assay Protocol: Buffer: 100 mM Tris-HCl pH 9.0, containing 0.01 % Tween-20. Reagents/Controls: Buffer in columns 3 and 4 as negative control (no enzyme). Substrate/cofactor solution: 1 mM NAD+ and 90 uM beta-hydroxybutyryl coenzyme A (Sigma-Aldrich, St. Louis, MO) final concentrations dispensed throughout the plate. Enzyme: 20 nM HADH2 final concentration in columns 1, 2, 5-48. Column 1 is neutral (100% activity). Column 2 contained titration of apomorphine (Sigma-Aldrich, A 4393, PubChem CID 2215, top concentration 500 uM, then 1:2 dilution in duplicate) Assay Steps: Three uL of enzyme were dispensed to 1536-well Greiner black solid bottom plates. Compounds and controls (23 nL) were transferred via Kalypsys PinTool. The plates were incubated for 15 min at room temperature, and then 1 uL of substrate/cofactor solution was added to start the reaction. The plates were immediately transferred to and read every 30 seconds for 4 min on ViewLux High-throughput CCD imager (Perkin-Elmer) using 360 nm excitation and 450 nm emission fluorescence protocol. The fluorescence intensity difference between the last and the first time points was used to compute reaction progress.
% is set by controls: 0 for no effect and ±100 for the full control effect; potency is the fitted concentration of half-maximal effect; tags give direction and shape of the fitted curve.

Chain of UniProt Q99714 (Q99714 whole entry, looked up): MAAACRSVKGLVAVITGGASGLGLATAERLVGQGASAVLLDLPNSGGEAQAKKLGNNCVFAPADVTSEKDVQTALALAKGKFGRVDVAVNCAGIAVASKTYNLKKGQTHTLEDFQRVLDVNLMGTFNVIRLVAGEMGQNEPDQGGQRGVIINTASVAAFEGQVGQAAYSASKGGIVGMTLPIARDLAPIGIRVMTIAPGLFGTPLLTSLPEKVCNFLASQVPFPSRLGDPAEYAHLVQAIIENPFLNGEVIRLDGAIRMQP
Chain of UniProt Q99714 (Q99714 whole entry, looked up): as above

SMILES	Potency	activity change, negative = inhibition
CN(C)c1ccc(-c2cncnc2Nc2ccccc2)cc1	inconclusive: 25.1 µM [inhibitor, single point]	
Cc1c(NC(=O)COC(=O)c2cc3c4ccccc4n(C)c3s2)c(=O)n(-c2ccccc2)n1C	inconclusive: 31.6 µM [inhibitor, single point]	
Cc1nc2ccc3[nH]snc3c2n1		inactive: -22.2%
N#CC1=C(SCC(N)=O)NC(=O)CC1c1cccc2ccccc12 (stereo unspecified)		inactive: -6.92%
COc1ccc2nc(C)c3c(c2c1)OC(C)C3 (stereo unspecified)		inactive: 19.5%
COc1ccc2c(c1)S/C(=C\C(=O)c1ccncc1)N2C	active: 3.16 µM	
C=C(C)CSC1=C(C#N)C(c2ccccc2)CC(=O)N1 (stereo unspecified)	inconclusive: 39.8 µM [inhibitor, single point]	
Cc1oc(-c2ccc(Cl)cc2)cc1-c1nn2c(-c3ccoc3C)nnc2s1	active: 31.6 µM	
CCC(=O)N1CCc2cc(Br)cc(S(=O)(=O)NCCN3CCOCC3)c21		inactive: 0.222%
Cc1ccc(C)c(N2CCN(C(=O)C3CCN(S(=O)(=O)c4cccc5nsnc45)CC3)CC2)c1	inconclusive: 31.6 µM [inhibitor, single point]	
Cc1ccc(C(=O)CSc2nnc(CNc3nc(-c4ccccc4)cs3)n2C)cc1	inconclusive: 39.8 µM [inhibitor, single point]	
COc1ccc2[nH]cc(CCNc3ncncc3-c3cccnc3)c2c1	inconclusive: 25.1 µM [inhibitor, single point]	
COc1cccc(C(=O)NCCN2CCN(c3ccc(Cl)cc3)CC2)c1		inactive: 12.1%
CCN(CC)S(=O)(=O)c1ccc2oc(SCC3CN=C(c4ccc(OC)cc4)S3)nc2c1 (stereo unspecified)	inconclusive: 7.94 µM [inhibitor, partial curve]	
CCOC(=O)CSc1ccc2nnc(-c3cccnc3)n2n1	inconclusive: 31.6 µM [inhibitor, single point]	
COc1ccc(-c2ccc(S(=O)(=O)N3CCOCC3)cc2)cc1	inconclusive: 39.8 µM [inhibitor, single point]	
Cc1ccc2c(c1)c1ncnc(N3CCc4ccccc4C3)c1n2C	inconclusive: 39.8 µM [inhibitor, single point]	
COc1ccc(Cc2nnc(NC(=O)Cc3cccs3)s2)cc1OC	active: 12.6 µM	
O=C(CSc1nnc(-c2ccco2)o1)NC(=O)C1COc2ccccc2O1 (stereo unspecified)		inactive: -28.2%
CCn1nc(C(=O)OCC(=O)c2c[nH]c3ccccc23)c2ccccc2c1=O		inactive: -1.05%
CCOC(=O)c1cnc2c(C#N)c(C)nn2c1-c1ccccc1	inconclusive: 39.8 µM [inhibitor, single point]	
